Measured values as given in paper PMC12215968.
Certain results were filed several times, with different values. Only these are listed. The source may hold further records. Some protein pairs were linked at several places, one record each.

Assays:
Assay in all cases: cross-linking mass spectrometry
Conditions in all cases: TSTO, in cells
[1] = target: CANX (UniProt P27824)
[2] = target: CCT2 (UniProt P78371)
[3] = target: CCT4 (UniProt P50991)
[4] = target: TCP1 (UniProt P17987)
[5] = target: CCT8 (UniProt P50990)
[6] = target: EEF1D (UniProt P29692)
Chain of UniProt P29692 (P29692 whole entry): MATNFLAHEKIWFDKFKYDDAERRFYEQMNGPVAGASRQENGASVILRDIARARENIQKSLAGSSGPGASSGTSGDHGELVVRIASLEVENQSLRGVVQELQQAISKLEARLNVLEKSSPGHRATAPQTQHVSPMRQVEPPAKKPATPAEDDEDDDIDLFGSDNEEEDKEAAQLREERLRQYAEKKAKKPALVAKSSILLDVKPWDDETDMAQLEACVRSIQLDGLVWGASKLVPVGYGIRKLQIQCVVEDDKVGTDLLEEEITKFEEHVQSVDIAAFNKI

[7] = target: H1-2 (UniProt P16403)
[8] = target: MCM6 (UniProt Q14566)
[9] = target: NEFM (UniProt P07197)
Chain of UniProt P07197 (P07197 whole entry): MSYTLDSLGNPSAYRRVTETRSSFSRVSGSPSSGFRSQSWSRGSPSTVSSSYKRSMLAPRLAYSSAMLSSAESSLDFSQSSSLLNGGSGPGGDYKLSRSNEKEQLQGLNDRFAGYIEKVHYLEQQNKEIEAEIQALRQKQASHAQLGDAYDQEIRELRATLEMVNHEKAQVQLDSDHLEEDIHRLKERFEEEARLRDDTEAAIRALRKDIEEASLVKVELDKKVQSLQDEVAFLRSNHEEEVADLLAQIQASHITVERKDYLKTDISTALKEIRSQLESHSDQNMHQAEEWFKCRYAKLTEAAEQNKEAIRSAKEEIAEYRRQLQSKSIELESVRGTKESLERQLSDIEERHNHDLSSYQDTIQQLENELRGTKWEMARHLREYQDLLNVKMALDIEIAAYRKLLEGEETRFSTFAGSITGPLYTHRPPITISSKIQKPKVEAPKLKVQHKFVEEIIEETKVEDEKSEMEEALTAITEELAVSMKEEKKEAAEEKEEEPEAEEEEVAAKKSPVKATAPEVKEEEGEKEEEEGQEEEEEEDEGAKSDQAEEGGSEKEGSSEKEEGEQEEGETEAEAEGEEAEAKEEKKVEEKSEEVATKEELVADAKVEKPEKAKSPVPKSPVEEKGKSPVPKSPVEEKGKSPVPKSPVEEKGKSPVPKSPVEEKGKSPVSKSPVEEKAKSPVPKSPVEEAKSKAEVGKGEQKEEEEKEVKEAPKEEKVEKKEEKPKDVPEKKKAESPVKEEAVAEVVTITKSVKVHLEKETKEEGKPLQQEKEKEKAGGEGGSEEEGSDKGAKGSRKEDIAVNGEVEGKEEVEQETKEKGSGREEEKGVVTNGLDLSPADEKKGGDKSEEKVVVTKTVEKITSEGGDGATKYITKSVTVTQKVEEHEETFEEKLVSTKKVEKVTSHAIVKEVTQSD

[10] = target: PHB2 (UniProt Q99623)
Chain of UniProt Q99623 (Q99623 whole entry): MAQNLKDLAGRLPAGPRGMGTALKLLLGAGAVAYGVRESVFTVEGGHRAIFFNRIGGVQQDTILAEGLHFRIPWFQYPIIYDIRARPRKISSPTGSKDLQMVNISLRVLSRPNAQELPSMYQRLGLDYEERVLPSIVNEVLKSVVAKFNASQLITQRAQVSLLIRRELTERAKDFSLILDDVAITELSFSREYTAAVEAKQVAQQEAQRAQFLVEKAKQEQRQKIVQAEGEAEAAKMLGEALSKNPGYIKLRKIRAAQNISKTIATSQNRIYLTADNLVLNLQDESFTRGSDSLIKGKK

[11] = target: RPL22 (UniProt P35268)
[12] = target: RPS11 (UniProt P62280)
[13] = target: SERBP1 (UniProt Q8NC51)
[14] = target: SMC4 (UniProt Q9NTJ3)
Chain of UniProt Q9NTJ3 (Q9NTJ3 whole entry): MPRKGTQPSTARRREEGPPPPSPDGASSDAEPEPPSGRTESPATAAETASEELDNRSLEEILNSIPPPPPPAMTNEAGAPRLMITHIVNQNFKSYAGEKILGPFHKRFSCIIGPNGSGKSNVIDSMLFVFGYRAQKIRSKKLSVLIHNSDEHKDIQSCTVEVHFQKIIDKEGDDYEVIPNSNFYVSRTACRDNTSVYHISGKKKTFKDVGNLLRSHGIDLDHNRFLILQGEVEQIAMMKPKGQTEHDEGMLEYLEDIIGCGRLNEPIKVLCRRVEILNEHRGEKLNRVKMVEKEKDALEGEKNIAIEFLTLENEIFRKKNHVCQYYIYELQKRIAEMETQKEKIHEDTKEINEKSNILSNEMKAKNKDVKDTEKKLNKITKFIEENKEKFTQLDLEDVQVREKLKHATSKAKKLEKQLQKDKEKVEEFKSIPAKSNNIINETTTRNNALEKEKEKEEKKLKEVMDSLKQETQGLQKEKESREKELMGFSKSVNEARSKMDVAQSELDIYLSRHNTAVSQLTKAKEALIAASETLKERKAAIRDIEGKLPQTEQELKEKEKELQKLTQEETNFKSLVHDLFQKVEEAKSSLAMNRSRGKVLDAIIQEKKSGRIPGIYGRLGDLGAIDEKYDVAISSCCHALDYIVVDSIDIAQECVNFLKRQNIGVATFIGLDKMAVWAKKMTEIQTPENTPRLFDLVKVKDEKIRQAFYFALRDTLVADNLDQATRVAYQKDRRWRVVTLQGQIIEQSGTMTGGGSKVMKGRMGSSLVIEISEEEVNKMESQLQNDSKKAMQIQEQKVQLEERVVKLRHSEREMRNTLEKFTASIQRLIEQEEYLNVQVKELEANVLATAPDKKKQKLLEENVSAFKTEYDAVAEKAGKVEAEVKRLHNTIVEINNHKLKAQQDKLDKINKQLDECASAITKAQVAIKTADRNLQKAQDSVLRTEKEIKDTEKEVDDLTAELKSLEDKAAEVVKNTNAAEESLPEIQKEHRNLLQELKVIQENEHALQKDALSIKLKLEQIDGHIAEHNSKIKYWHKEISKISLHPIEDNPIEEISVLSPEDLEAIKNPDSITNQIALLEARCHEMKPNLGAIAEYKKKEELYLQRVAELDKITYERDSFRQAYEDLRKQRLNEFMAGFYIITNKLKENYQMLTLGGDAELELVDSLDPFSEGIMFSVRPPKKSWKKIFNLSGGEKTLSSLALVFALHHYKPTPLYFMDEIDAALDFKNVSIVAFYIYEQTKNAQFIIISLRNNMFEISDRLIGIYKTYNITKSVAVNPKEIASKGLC

[15] = target: SND1 (UniProt Q7KZF4)
[16] = target: SRP9 (UniProt P49458)
[17] = target: STIP1 (UniProt P31948)
[18] = target: XRCC5 (UniProt P13010)
Chain of UniProt P13010 (P13010 whole entry): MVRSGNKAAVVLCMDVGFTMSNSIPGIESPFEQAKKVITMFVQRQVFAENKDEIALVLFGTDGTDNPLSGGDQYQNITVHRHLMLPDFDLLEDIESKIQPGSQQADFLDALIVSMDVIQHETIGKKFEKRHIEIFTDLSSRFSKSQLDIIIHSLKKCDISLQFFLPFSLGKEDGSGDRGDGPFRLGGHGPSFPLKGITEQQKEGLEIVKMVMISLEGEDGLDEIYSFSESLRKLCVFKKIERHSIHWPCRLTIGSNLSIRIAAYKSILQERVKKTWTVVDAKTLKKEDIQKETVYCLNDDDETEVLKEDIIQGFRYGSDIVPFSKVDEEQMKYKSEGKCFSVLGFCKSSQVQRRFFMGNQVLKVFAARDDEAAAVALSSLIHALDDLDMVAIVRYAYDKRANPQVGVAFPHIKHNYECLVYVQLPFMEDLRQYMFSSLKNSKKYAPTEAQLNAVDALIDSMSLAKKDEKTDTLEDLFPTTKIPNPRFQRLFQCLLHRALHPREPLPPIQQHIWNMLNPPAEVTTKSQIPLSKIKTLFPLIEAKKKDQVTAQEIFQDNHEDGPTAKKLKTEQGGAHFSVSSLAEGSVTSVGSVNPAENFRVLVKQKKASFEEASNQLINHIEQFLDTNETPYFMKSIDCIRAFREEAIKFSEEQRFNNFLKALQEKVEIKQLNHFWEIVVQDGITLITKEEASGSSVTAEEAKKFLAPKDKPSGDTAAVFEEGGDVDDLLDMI

[19] = target: YWHAZ (UniProt P63104)

Chain of PHB1 (P35232 whole entry): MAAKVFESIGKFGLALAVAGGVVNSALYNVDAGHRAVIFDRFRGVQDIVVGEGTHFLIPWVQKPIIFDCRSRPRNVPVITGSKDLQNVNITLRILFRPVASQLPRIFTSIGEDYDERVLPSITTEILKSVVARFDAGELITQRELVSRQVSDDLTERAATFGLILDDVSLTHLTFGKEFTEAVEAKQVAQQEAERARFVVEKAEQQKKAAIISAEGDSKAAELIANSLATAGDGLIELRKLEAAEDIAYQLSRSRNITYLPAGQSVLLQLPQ
Chain of CCT6A (P40227 whole entry): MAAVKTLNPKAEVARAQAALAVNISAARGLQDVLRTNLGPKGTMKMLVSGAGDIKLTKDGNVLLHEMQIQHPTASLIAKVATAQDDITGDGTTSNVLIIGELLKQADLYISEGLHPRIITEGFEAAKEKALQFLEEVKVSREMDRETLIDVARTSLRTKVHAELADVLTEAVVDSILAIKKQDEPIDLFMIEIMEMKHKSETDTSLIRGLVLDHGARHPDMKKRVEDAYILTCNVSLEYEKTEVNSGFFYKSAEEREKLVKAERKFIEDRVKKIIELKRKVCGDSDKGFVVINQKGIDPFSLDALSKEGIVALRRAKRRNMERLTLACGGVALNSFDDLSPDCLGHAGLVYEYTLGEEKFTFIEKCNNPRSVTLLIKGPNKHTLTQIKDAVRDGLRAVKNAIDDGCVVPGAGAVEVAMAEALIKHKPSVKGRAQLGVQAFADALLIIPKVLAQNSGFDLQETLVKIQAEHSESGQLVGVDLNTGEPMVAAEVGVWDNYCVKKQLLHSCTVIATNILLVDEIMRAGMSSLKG
Chain of UniProt P78371 (P78371 whole entry): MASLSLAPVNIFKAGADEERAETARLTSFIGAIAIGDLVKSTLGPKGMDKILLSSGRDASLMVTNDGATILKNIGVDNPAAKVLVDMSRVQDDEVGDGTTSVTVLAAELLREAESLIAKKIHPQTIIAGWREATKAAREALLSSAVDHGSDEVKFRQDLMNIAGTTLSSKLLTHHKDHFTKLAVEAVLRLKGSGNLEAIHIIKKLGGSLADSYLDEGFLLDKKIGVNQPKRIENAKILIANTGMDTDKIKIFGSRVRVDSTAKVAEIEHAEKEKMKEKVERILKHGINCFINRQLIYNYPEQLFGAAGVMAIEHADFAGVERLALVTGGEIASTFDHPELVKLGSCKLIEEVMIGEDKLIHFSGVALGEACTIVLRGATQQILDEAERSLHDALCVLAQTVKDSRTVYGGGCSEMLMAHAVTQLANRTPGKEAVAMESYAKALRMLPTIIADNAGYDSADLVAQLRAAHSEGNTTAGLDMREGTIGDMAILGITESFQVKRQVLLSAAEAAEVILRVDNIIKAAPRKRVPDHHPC
Chain of PDCD5 (O14737 whole entry): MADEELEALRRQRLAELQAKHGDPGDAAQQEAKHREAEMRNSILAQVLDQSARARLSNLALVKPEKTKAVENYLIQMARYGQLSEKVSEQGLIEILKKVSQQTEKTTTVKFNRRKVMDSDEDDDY

PPIB, P23284
cross-linked residues [1]: K116 - K90 and K116 - K127

CCT4, P50991
cross-linked residues [2]: K21 - K46 and K21 - K176 and K21 - K522 and K55 - K176 and K65 - K522 and K288 - K272 and K531 - K46

CCT5, P48643
cross-linked residues [2]: K170 - K135 and K232 - K250 and K265 - K250 and K275 - K263 and K275 - K272 and K392 - K82

PDCD5, O14737
cross-linked residues [3]: K98 - K395 and K110 - K395
cross-linked residues [4]: K20 - K541 and K98 - K541 and K105 - K532 and K105 - K541

CCT6A, P40227
cross-linked residues [5]: K10 - K440 and K199 - K400 and K377 - K400

EEF1G, P26641
cross-linked residues [6]: K219 - K17 and K220 - K10 and K220 - K17 and K227 - K17

H1-4, P10412
cross-linked residues [7]: K168 - K178 and K168 - K191

MCM2, P49736
cross-linked residues [8]: K178 - K99 and K178 - K102

NEFL, P07196
cross-linked residues [9]: K128 - K139 and K293 - K307 and K293 - K314

PHB1, P35232
cross-linked residues [10]: K83 - K200 and K128 - K89 and K186 - K97 and K186 - K200 and K202 - K216

NPM1, P06748
cross-linked residues [11]: K202 - K5 and K212 - K5

EIF4B, P23588
cross-linked residues [12]: K6 - K45 and K6 - K144

RPS12, P25398
cross-linked residues [13]: K116 - K286 and K116 - K299

RPS3A, P61247
cross-linked residues [13]: K240 - K122 and K249 - K68

SMC2, O95347
cross-linked residues [14]: K580 - K731 and K643 - K680 and K716 - K820 and K750 - K522 and K911 - K1009 and K963 - K1031 and K963 - K1037

RPS9, P46781
cross-linked residues [15]: K121 - K386 and K121 - K513

SRP14, P37108
cross-linked residues [16]: K42 - K76 and K74 - K76

HSP90AB1, P08238
cross-linked residues [17]: K435 - K486 and K435 - K530

XRCC6, P12956
cross-linked residues [18]: K9 - K265 and K114 - K325 and K189 - K603 and K317 - K282 and K539 - K399 and K591 - K144

YWHAQ, P27348
cross-linked residues [19]: K9 - K85 and K85 - K9
